In PubChem BioAssay AID1461 (National Center for Advancing Translational Sciences (NCATS), 2008):
The campaign covered roughly 220,000 compounds. About 2,300 (1%) were called active. This list was built around the results that the source calls inconclusive (neither active nor inactive); the mix of calls is not that of the screen. The call rests on the fitted dose curve; in most records, active means well fitted inhibition curve with a large enough effect; inconclusive means small, poorly fitted or top-dose-only effect, or effect the other way; inactive means no such curve, though single readings can be large or run the other way. Potencies of inconclusive entries are left out as doubtful fits.

What follows are compounds tested against Neuropeptide S receptor (Homo sapiens) (UniProt Q6W5P4) (assay: qHTS Assay for Antagonists of the Neuropeptide S Receptor: cAMP Signal Transduction). Conditions: CHO-NPSR cells, cAMP TR-FRET, antagonist mode; series mostly up to 38.3 µM.
Further: nearly all actives have a fitted effect of over 50% in size.
Potency means the concentration at half of the fitted maximal effect; tags describe the fitted curve by direction and shape.

Sequence of UniProt Q6W5P4 (Q6W5P4 whole entry, looked up): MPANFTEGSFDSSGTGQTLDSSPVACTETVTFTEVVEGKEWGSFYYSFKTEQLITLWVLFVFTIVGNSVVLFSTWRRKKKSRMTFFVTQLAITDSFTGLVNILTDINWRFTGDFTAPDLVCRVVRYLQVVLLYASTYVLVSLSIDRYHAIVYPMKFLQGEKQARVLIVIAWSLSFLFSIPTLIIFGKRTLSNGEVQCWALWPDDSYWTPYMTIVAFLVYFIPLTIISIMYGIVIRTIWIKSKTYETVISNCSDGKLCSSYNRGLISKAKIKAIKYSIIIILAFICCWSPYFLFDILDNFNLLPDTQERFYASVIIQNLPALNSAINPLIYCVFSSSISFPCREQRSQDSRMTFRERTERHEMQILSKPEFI

SMILES | Potency
FC(F)(F)c1cccc(NC(=S)NNC(=S)Nc2cccc(C(F)(F)F)c2)c1 | inconclusive [activator, single point]
O=C(NCC12CC3CC(CC(C3)C1)C2)c1cc2n(n1)C(C(F)(F)F)CC(c1ccco1)N2 (stereo unspecified) | inconclusive [inhibitor, partial curve]
Cc1ccc(C(=O)NCc2nnc(SCC(=O)Nc3sc4c(c3C#N)CCCC4)n2C)cc1 | inconclusive [inhibitor, full curve, poor fit]
Cn1nc(-c2ccc(Cl)cc2)c2cc(C(=O)NCCCN3CCCC3)sc21 | active: 10 µM
Cc1onc(-c2c(F)cccc2Cl)c1C(=O)NCCO | inactive
Cc1ccc(C)c(NC(=O)C(Sc2ncnc3ccccc23)c2ccccc2)c1 (stereo unspecified) | inconclusive [inhibitor, single point]
COC(=O)C(=Cc1ccc(OCc2ccc([N+](=O)[O-])cc2)c(OC)c1)C(=O)OC | inconclusive [inhibitor, single point]
CC(=O)Cc1nsc(NC(=O)c2cc(-c3ccc(Cl)c(Cl)c3)oc2C)n1 | inconclusive [inhibitor, single point]
O=C(CN1C(=O)CCC1=O)Nc1nc(-c2nc3ccccc3s2)cs1 | inactive
COc1ccccc1NS(=O)(=O)c1cccc(C(=O)NNC(=O)C(NC(N)=O)C(C)C)c1 (stereo unspecified) | inactive
CC(=O)c1sc(NC(=O)C(C)(C)C)nc1C | inactive
CCCCn1c(NC(=O)c2ccccc2Cl)c(C#N)c2nc3ccccc3nc21 | active: 10 µM
N#CCC(=N)N1CCN(c2cccc(Cl)c2)CC1 | inactive
O=C(Nc1ccccc1C(F)(F)F)c1cc(-c2ccc(O)cc2)on1 | inconclusive [inhibitor, single point]
CC(C)(C)c1ccc(OCC(=O)N/N=C/c2cc(Br)ccc2OC(=O)c2ccco2)cc1 | inconclusive [inhibitor, single point]
COCC(=O)N/N=C/c1ccc(Sc2nc3ccccc3s2)o1 | inconclusive [inhibitor, single point]
COC(=O)c1ccccc1NC(=O)Cn1cnc2ccc(S(=O)(=O)N3CCC(C)CC3)cc2c1=O | inactive
CCOc1cc(/C=C2\NC(=S)N(c3c(C)n(C)n(-c4ccccc4)c3=O)C2=O)ccc1O | inactive
Cc1c(O)c2c3c(cccc3c1O)C(=O)N(c1ccccc1)C2=O | inactive
c1coc(-c2nnc3sc(Cc4cccs4)nn23)c1 | inactive
CCOC(=O)Cn1nnnc1C(C(C)C)N(Cc1cccs1)Cc1cc2cc(C)ccc2[nH]c1=O (stereo unspecified) | inconclusive [inhibitor, partial curve]
Cc1ccc(S(=O)(=O)N/N=C2/CC(c3ccccc3)Oc3ccccc32)cc1 (stereo unspecified) | inconclusive [inhibitor, single point]
CCN(CC)c1ccc(-c2nn3c(-c4cccnc4)nnc3s2)cc1 | inconclusive [inhibitor, single point]

SMILES | Potency
Cc1ccc(C(=O)Nn2c(O)c(C=C3N=c4ccccc4=N3)sc2=S)cc1 | inconclusive [inhibitor, partial curve]
Oc1c(Cl)cc(Cl)cc1C=Nc1cc(C(F)(F)F)ccc1N1CCc2ccccc2C1 | inconclusive [activator, single point]
CCN(CC)S(=O)(=O)c1cc([N+](=O)[O-])ccc1NNC(=O)Nc1ccc(Cl)c(Cl)c1 | active: 10 µM
O=C(Nc1ccc(C(=O)N2CCOCC2)cc1)c1cc(-c2cccnc2)nc2ccc(Br)cc12 | inactive
CSc1nc(C)c2cc(C)oc2n1 | inactive
CCCOC(=O)c1c(NC(=O)/C=C/c2cnn(C)c2C)sc(C(=O)OCC)c1C | inconclusive [inhibitor, single point]
COc1ccc(-c2csc(NC(=S)NC(=O)/C=C/c3ccco3)n2)cc1OC | active: 1 µM
Cc1ccc(S(=O)(=O)N2CCCN(S(=O)(=O)c3ccc4c(c3)OCCO4)CC2)cc1 | inconclusive [inhibitor, single point]
COc1ccc(-c2n(CC(=O)OC3CC(C)CCC3C(C)C)c3ccccc3[n+]2C)cc1 (stereo unspecified) | inactive
O=C(COc1ccc(Br)cc1)N1CCN(c2ccccc2)CC1 | inconclusive [inhibitor, single point]
O=C(NCc1ccco1)c1ccc(S(=O)(=O)N2CCCc3ccccc32)cc1 | inconclusive [inhibitor, single point]
COc1ccc(-n2nnc3c(=O)n(CC(=O)NCC4CCCO4)cnc32)cc1 (stereo unspecified) | inconclusive [activator, single point]
CCC(C)[C@H]1CNC(=S)N1CCc1cccc2ccccc12 (stereo partly specified) | inconclusive [inhibitor, full curve, poor fit]
Cc1ccc(/C=N/NC(=O)Cc2cccs2)o1 | inactive
CCCCN(C)C(=O)CSc1nc(NCc2ccc(OC)cc2)c2ccccc2n1 | inconclusive [inhibitor, partial curve, poor fit]
CCOC(=O)C1=C(SCC)c2cc3c(n2C1=O)CCCC3 | active: 12.6 µM
O=C(NCc1ccco1)C(c1ccccc1)N(C(=O)Cc1cccs1)c1ccccc1 (stereo unspecified) | inactive
CCOC(=O)Nc1sc2c(c1C#N)CCC(C)C2 (stereo unspecified) | inactive
O=C(CN1CCN(c2ccccn2)CC1)N(c1ccccc1)c1ccc2ccccc2c1 | inconclusive [inhibitor, full curve, poor fit]
COc1ccc(-c2n[nH]c(C)c2-c2cnn(-c3ccccc3)c2)c(O)c1C | inconclusive [inhibitor, single point]
O=C(/C=C/Nc1ccccc1)c1ccccc1 | inconclusive [inhibitor, partial curve]
FC(F)(F)c1cccc(-c2nnc(-c3ccccc3)c(N3CCOCC3)n2)c1 | inconclusive [inhibitor, single point]
O=C(O)c1cccc(NS(=O)(=O)c2ccc3c(c2)C(=O)c2ccccc2C3=O)c1 | inactive
